Common to all, as to experiment: mutation enrichment score (mutant vs wild-type peptide binding to bait); baits are purified protein domains named by gene / domain / UniProt id / residues; peptides come from disordered regions of human proteins; higher = mutation enhances binding relative to wild type
Assay [1] concerns the target T1, G3BP2_NTF2_1_Q9UN86_1_139.
T1 chain: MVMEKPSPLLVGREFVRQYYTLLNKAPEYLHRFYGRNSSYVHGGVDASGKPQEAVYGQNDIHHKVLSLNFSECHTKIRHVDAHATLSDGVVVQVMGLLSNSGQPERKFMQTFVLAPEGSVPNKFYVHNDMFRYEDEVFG
The note with it: wild-type window: ….

The target in assay [2] is FKBP1A_full-length__P62942_1_108, P62942. As to conditions: wild-type window: ….
Assay [3] addresses USP7_MATH-TRAF__Q93009_53_206. The note with it: number of wild-type / mutant comparisons summed (bounds the score): 10; paper call: no_effect; wild-type window: ….
The target in assay [4] is GABARAPL1_ATG8__Q9H0R8_2_115. The note with it: number of wild-type / mutant comparisons summed (bounds the score): 6, wild-type window: ….
Assay [5] addresses MAP1LC3A_ATG8__Q9H492_2_121. The note with it: number of wild-type / mutant comparisons summed (bounds the score): 6, wild-type window: ….
Assay [6] addresses MAP1LC3B_ATG8__Q9GZQ8_2_119. As to conditions: number of wild-type / mutant comparisons summed (bounds the score): 6, wild-type window: ….
Assay [7] concerns the target GABARAPL2_ATG8__P60520_2_115. The note with it: number of wild-type / mutant comparisons summed (bounds the score): 6, wild-type window: ….
Assay [8] has as its target GABARAP_ATG8__O95166_2_115. The note with it: number of wild-type / mutant comparisons summed (bounds the score): 6; paper call: no_effect; wild-type window: ….
For assay [9], the target named is T2, ZMYND11_coiled-coil-MYND__Q15326_480_602.
T2 chain: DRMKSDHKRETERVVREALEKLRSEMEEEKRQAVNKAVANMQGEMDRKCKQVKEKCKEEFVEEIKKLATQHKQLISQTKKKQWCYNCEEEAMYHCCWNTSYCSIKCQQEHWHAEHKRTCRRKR
The note with it: paper call: no_effect, wild-type window: ….

The mark [10] stands for this setting: number of wild-type / mutant comparisons summed (bounds the score): 6, paper call: no_effect.
Where [11] appears, read: number of wild-type / mutant comparisons summed (bounds the score): 12, paper call: enhanced.
[12] abbreviates: number of wild-type / mutant comparisons summed (bounds the score): 6.
Setting [13] is: number of wild-type / mutant comparisons summed (bounds the score): 12, paper call: no_effect.
The mark [14] stands for this setting: number of wild-type / mutant comparisons summed (bounds the score): 12, paper call: diminished.

The other results are listed elsewhere or left out. Single values of this set are uncertain.

Sequence of FKBP1A_full-length__P62942_1_108, P62942 (P62942 whole entry): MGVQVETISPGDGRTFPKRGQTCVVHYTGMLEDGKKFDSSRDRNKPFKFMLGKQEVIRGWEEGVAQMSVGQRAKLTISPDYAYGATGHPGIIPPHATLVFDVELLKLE
Sequence of GABARAP_ATG8__O95166_2_115 (chain, as listed by the source): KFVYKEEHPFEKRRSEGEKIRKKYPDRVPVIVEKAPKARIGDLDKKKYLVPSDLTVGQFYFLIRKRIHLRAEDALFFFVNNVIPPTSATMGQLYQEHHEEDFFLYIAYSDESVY
Sequence of GABARAPL2_ATG8__P60520_2_115 (chain, as listed by the source): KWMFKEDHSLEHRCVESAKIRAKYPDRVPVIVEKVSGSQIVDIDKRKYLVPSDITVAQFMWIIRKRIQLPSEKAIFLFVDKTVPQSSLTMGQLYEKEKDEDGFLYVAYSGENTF
Sequence of USP7_MATH-TRAF__Q93009_53_206 (chain, as listed by the source): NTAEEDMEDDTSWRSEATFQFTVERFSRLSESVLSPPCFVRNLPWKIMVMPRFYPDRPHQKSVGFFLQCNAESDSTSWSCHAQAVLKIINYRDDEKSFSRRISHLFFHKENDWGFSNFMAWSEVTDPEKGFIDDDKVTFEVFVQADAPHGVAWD

B1: D119H D119H (peptide)
chain: MEFDTRERWENPLMGWASTAHPLSNMVLTFSTKEDAVSFAE
Regarding B1, the mutation enrichment score in [1] (setting [10]) was -5.6.

B2: R19751C R19751C (peptide)
chain: KLEVTEMTKNSATLAWLPPLCDGGAKIDGYITSYREEEQPA
With B2, the mutation enrichment score in assay [2] (setting [10]) is -3.9; in assay [3], -4.

B3: S432C S432C (peptide)
chain: MTIGPGEPASLGPTFTNTGACTLVIGLASTQAQSVPVINSM
In the case of B3, the mutation enrichment score in [2] (setting [10]) is -4.6.

B4: R1811Q R1811Q (peptide)
chain: VGEFPVLFFGSNDYLWTHQAQVFPYMEGDVSSKDKMGKGVD
In the case of B4, the mutation enrichment score in assay [1] (setting [10]) worked out at 4.7.

B5: I1193V I1193V (peptide)
chain: IFDSDWNPHQDLQAQDRAHRVGQQNEVRVLRLCTVNSVEEK
With B5, the mutation enrichment score in [1] (setting [10]) is 1.

B6: R137W R137W (peptide)
chain: YRPVKVRGCFDHSKELYMMPWTMVDPVREAREGGLISSSTQ
Regarding B6, the mutation enrichment score in assay [4] (paper call: enhanced), in assay [5] (paper call: enhanced) and in assay [6] (paper call: enhanced) was 6 throughout.

B7: A76E A76E (peptide)
chain: GEPDLKKESEEDKFPVCIREEVSQVLKGYDWTLVPMPVRVN
For the molecule B7, the mutation enrichment score in [4] (paper call: enhanced) was determined as 6; in [7] (paper call: enhanced), 6; in assay [8] it was 3.

B8: A578S A578S (peptide)
chain: LSAPSAPIFQDVLLQFLDTQSPMLTDPRSESERVEFFNLVL
For B8, the mutation enrichment score in [1] (setting [11]) amounted to 8.

B9: T1228M T1228M (peptide)
chain: DRGEDGPKPMPPYSSMFILSMTNPLRRLCHYILNLRYFEMC
As to B9, the mutation enrichment score in [2] (setting [10]) stood at 2.

B10: E21Q E21Q (peptide)
chain: MFPSPALTPTPFSVKDILNLQQQQRSLAAAGELSARLEATL
On to B10, for which the mutation enrichment score in assay [1] (setting [10]) was -1.

B11: T1807P T1807P (peptide)
chain: MRHDVGEFPVLFFGSNDYLWPHQARVFPYMEGDVSSKDKMG
For the molecule B11, in [1] (setting [10]), the mutation enrichment score was -1.

B12: E671G E671G (peptide)
chain: GWIAILGAIWLLILADIHDFGIILHRVEWATLLFFAALFVL
With B12, the mutation enrichment score in assay [4] (paper call: no_effect) is -3; in [7] (paper call: no_effect), -4.

B13: N19S N19S (peptide)
chain: MFPSPALTPTPFSVKDILNLSQQQRSLAAAGELSARLEA
For the molecule B13, the mutation enrichment score in assay [1] (setting [10]) is -1.

B14: P182L P182L (peptide)
chain: TLTVEAPMPKLATQSNEITILVTFESRAQLGGPEAAKSDET
On to B14, for which the values for the mutation enrichment score in [1] (setting [10]) and in assay [9] (setting [12]) were -2 and -1, respectively.

B15: P182S P182S (peptide)
chain: TLTVEAPMPKLATQSNEITISVTFESRAQLGGPEAAKSDET
With B15, the mutation enrichment score in assay [1] (setting [10]) was -2; in [9] (setting [12]), 0.

B16: K15I K15I (peptide)
chain: MFPSPALTPTPFSVKDILNLIQQQRSLAAAGELSA
In the case of B16, in assay [1] (setting [13]), the mutation enrichment score turned out to be 0.

B17: G1792E G1792E (peptide)
chain: AEICHPRAVPSNIDKMRHDVEEFPVLFFGSNDYLWTHQARV
Take B17: the mutation enrichment score in assay [1] (setting [14]) was -7.8.

B18: G1792V G1792V (peptide)
chain: AEICHPRAVPSNIDKMRHDVVEFPVLFFGSNDYLWTHQARV
Take B18: the mutation enrichment score in assay [1] (setting [14]) is -6.

B19: R212C R212C (peptide)
chain: HFGWPGWEMGPPGNWSPRPPCAGEARPGPTAESASGPSEDP
For B19, the mutation enrichment score in assay [2] (number of wild-type / mutant comparisons summed (bounds the score): 18, paper call: enhanced) came out at 7.

B20: L1797P L1797P (peptide)
chain: PRAVPSNIDKMRHDVGEFPVPFFGSNDYLWTHQARVFPYME
On to B20, for which, in assay [1] (number of wild-type / mutant comparisons summed (bounds the score): 18, paper call: diminished), the mutation enrichment score is -7.9.

B21: P485L P485L (peptide)
chain: SGFRQGGASQSDKTPEELFHLLGADSQV
For B21, the mutation enrichment score in [4] (paper call: no_effect) came out at 5.

B22: T196I T196I (peptide)
chain: SPFEDLNARRVYMQSQANQIIFGQPGLDIQSRSMEYVQRQI
Turning to B22, the mutation enrichment score in [1] (setting [13]) is -4.

B23: I241T I241T (peptide)
chain: ISLAFYNGLWAYDGWNQLNYTTEELRNPYRNLPLAIIIGIP
On to B23, for which the mutation enrichment score in assay [4] (paper call: no_effect) was 2.4; in assay [7] (paper call: no_effect), -1.

B24: R485P R485P (peptide)
chain: QGPYENRTVFETLDIGWQLLPIFPKEMLKRIPQSTLSEFYP
B24: the mutation enrichment score is 6 in assay [4] (paper call: enhanced); 6 in assay [7] (paper call: enhanced); 3 in [8]; 6 in assay [5] (paper call: enhanced); 5 in [6] (paper call: no_effect).

B25: S33F S33F (peptide)
chain: AMEPDRKAAVSHWQQQSYLDFGIHSGATTTAPSLSGKGNPE
Take B25: the mutation enrichment score in assay [1] (setting [13]) is 5.

B26: D299G D299G (peptide)
chain: SPAQPATAAANNNFVNFGVGGLNAVQSPGIPQSNSGVSTLH
Regarding B26, in assay [1] (setting [13]), the mutation enrichment score was -3.

B27: R3070C R3070C (peptide)
chain: ASSDTPMDPVTFIQTLPSDLCRSVLEDMEDSVLAVMPPDIA
As for B27, the mutation enrichment score in assay [1] (setting [13]) is 3.8.

B28: S305G S305G (peptide)
chain: TAAANNNFVNFGVGDLNAVQGPGIPQSNSGVSTLHGIRAW
B28: the mutation enrichment score in assay [1] (setting [13]) came to 0.17.

B29: Q22P Q22P (peptide)
chain: FPSPALTPTPFSVKDILNLEPQQRSLAAAGELSARLEATLA
Take B29: the mutation enrichment score in [1] (setting [10]) is -1.

B30: Q22R Q22R (peptide)
chain: FPSPALTPTPFSVKDILNLERQQRSLAAAGELSARLEATLA
In the case of B30, in [1] (setting [10]), the mutation enrichment score is -1.

B31: T180S T180S (peptide)
chain: EGTLTVEAPMPKLATQSNEISIPVTFESRAQLGGPEAAKSD
B31: the mutation enrichment score is -2 in [1] (setting [10]) and -1 in [9] (setting [12]).

B32: T180I T180I (peptide)
chain: EGTLTVEAPMPKLATQSNEIIIPVTFESRAQLGGPEAAKSD
On to B32, for which the mutation enrichment score in assay [1] (setting [13]) was -2; in [9] (number of wild-type / mutant comparisons summed (bounds the score): 12), -1.

B33: Y232C Y232C (peptide)
chain: EGAQLSVGAISLAFYNGLWACDGWNQLNYITEELRNPYRNL
With B33, the mutation enrichment score in [4] (paper call: no_effect) is -1.6; in assay [7] (paper call: no_effect) it was -2.

B34: S559L S559L (peptide)
chain: SGNVRSPASPNEFAFGSYVPLFAKTSERSNPFSQKSSFLDF
Regarding B34, the mutation enrichment score in [1] (setting [10]) is -5.

B35: S187L S187L (peptide)
chain: APMPKLATQSNEITIPVTFELRAQLGGPEAAKSDETAAK
Regarding B35, in [1] (setting [14]), the mutation enrichment score was -7.

B36: S187W S187W (peptide)
chain: APMPKLATQSNEITIPVTFEWRAQLGGPEAAKSDETAAK
Turning to B36, in [1] (setting [14]), the mutation enrichment score is -7.

B37: I62V I62V (peptide)
chain: DDEEAPKPSSDLEAGKQLPFVYGDIPPGMVSEPLEDLDPYY
For B37, in [1] (setting [11]), the mutation enrichment score turned out to be 6.9.

B38: N294H N294H (peptide)
chain: YPAGPSPAQPATAAANNNFVHFGVGDLNAVQSPGIPQSNSG
With B38, in assay [1] (setting [13]), the mutation enrichment score was -3.

B39: R585Q R585Q (peptide)
chain: IFQDVLLQFLDTQAPMLTDPQSESERVEFFNLVLLFCELIR
Turning to B39, in assay [1] (setting [10]), the mutation enrichment score worked out at 3.

B40: Q1100H Q1100H (peptide)
chain: QLLERFYDPLAGTVFVDFGFHLLDGQEAKKLNVQWLRAQLG
Regarding B40, the mutation enrichment score in [1] (setting [10]) turned out to be 5.5; in [8], 2.9; in assay [6] (paper call: no_effect) it was 0.22.

B41: R1582W R1582W (peptide)
chain: VNEILRSGTCTRDESSVQSSWSERGLVEEEWVIVSDEEIEE
For the molecule B41, the mutation enrichment score in assay [4] (paper call: diminished) and in [6] (paper call: diminished) was -6 each time.

B42: R1582Q R1582Q (peptide)
chain: VNEILRSGTCTRDESSVQSSQSERGLVEEEWVIVSDEEIEE
Regarding B42, the mutation enrichment score was found to be 0.48 in [4] (paper call: no_effect), 1.2 in assay [5] (paper call: no_effect) and 0.79 in assay [6] (paper call: no_effect).

For the origin of these results see the supplement of paper PMC11369174, “Proteome-scale characterisation of motif-based interactome rewiring by disease mutations” (Molecular Systems Biology, 2024).
